Patent US20230348447A1, “OXAZOLIDINONE COMPOUNDS, LIPOSOME COMPOSITIONS COMPRISING OXAZOLIDINONE COMPOUNDS AND METHOD OF USE THEREOF” (priority 2020, published 2023)

Tested on: M. Tuberculosis Erdman or H37Rv vs VERO or HepG2 cells
Test: Selectivity Index (mammalian cell IC50 / bacterial MIC)
Design: species or system Mycobacterium tuberculosis

SMILES	Selectivity Index (SI) H37Rv /HepG2	Selectivity Index (SI) H37Rv /VERO
CN(C)C[C@H]1CN(c2ccc(-c3ccc(-c4nnn(C)n4)nc3)c(F)c2)C(=O)O1 [AKG-1]	14.5	<14.1
CCN(CC)C[C@H]1CN(c2ccc(-c3ccc(-c4nnn(C)n4)nc3)c(F)c2)C(=O)O1 [AKG-2]	3.1	<8.5
Cl.Cn1nnc(-c2ccc(-c3ccc(N4C[C@H](CN)OC4=O)cc3F)cn2)n1 [AKG-3]	353.3	296.7
CN(C)CCCC(=O)OC[C@H]1CN(c2ccc(-c3ccc(-c4nnn(C)n4)nc3)c(F)c2)C(=O)O1 [AKG-5]	30.8	32.5
CN(C)CCC1CCN(C[C@H]2CN(c3ccc(-c4ccc(-c5nnn(C)n5)nc4)c(F)c3)C(=O)O2)CC1 [AKG-6]	1.9	<3.4
CCN(CC)CCOC[C@H]1CN(c2ccc(-c3ccc(-c4nnn(C)n4)nc3)c(F)c2)C(=O)O1 [AKG-7]	1.4	<13.0
CCN(CC)CCNC[C@H]1CN(c2ccc(-c3ccc(-c4nnn(C)n4)nc3)c(F)c2)C(=O)O1 [AKG-9]	3.5	<17.4
CN(C)CCC1CCN(c2ccc(-c3ccc(N4C[C@H](CO)OC4=O)cc3F)cn2)CC1 [AKG-11]	10.7	8.0
CN(C)CCNc1ccc(-c2ccc(N3C[C@H](CO)OC3=O)cc2F)cn1 [AKG-12]	16.9	22.3
CCN(CC)CCNc1ccc(-c2ccc(N3C[C@H](CO)OC3=O)cc2F)cn1 [AKG-13]	<4.0	<11.7
CCN(CC)CCCNc1ccc(-c2ccc(N3C[C@H](CO)OC3=O)cc2F)cn1 [AKG-15]	<4.5	<19.5
Cl.Cn1nnc(-c2ccc(-c3ccc(N4C[C@H](CNC(=O)CCN)OC4=O)cc3F)cn2)n1 [AKG-19]	5.3	>31.3
CCN(CC)CCC(=O)OC[C@H]1CN(c2ccc(-c3ccc(-c4nnn(C)n4)nc3)c(F)c2)C(=O)O1 [AKG-20]	30.2	>500
CN(C)CCn1nnnc1-c1ccc(-c2ccc(N3C[C@H](CO)OC3=O)cc2F)cn1 [AKG-21]	<19.5	
Cl.NCCn1nnnc1-c1ccc(-c2ccc(N3C[C@H](CO)OC3=O)cc2F)cn1 [AKG-22]	34.4	115.4
Cl.NCCn1nnc(-c2ccc(-c3ccc(N4C[C@H](CO)OC4=O)cc3F)cn2)n1 [AKG-23]	29.2	>1000
CCN(CC)CCn1nnc(-c2ccc(-c3ccc(N4C[C@H](CO)OC4=O)cc3F)cn2)n1 [AKG-24]	11.4	31.3
CN(C)CCCn1nnc(-c2ccc(-c3ccc(N4C[C@H](CO)OC4=O)cc3F)cn2)n1 [AKG-25]	9.4	182.0
CCN(CC)CCCn1nnc(-c2ccc(-c3ccc(N4C[C@H](CO)OC4=O)cc3F)cn2)n1 [AKG-26]	4.5	64.3
Cl.NCCCn1nnc(-c2ccc(-c3ccc(N4C[C@H](CO)OC4=O)cc3F)cn2)n1 [AKG-27]	18.0	11.2
CN(C)CCn1nnc(-c2ccc(-c3ccc(N4C[C@H](CN)OC4=O)cc3F)cn2)n1.Cl [AKG-28]	893.3	5533.3
Cl.Cl.NCCn1nnc(-c2ccc(-c3ccc(N4C[C@H](CN)OC4=O)cc3F)cn2)n1 [AKG-29]	595.2	879.2
CN(C)CCCn1nnc(-c2ccc(-c3ccc(N4C[C@H](CN)OC4=O)cc3F)cn2)n1 [AKG-30]	151.2	884.0
CCN(CC)CCn1nnc(-c2ccc(-c3ccc(N4C[C@H](CNC(C)=O)OC4=O)cc3F)cn2)n1 [AKG-39]	140.0	402.0
CCN(CC)CCCn1nnc(-c2ccc(-c3ccc(N4C[C@H](CNC(C)=O)OC4=O)cc3F)cn2)n1 [AKG-40]	226.0	>500.0
